# Experimental data from paper PMC12136788.
# The list shows a part of the results.
# T1: UNK ZnF1-3 (human, UniProt Q9C0B0 31-174)
# T1 sequence: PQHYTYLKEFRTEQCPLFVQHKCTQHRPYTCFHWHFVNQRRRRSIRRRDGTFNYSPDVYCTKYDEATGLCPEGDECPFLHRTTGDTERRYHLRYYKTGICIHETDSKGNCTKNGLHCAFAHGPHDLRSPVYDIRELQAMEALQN
# B1: chr19:8913615:8913616:-_ENSMUSG00000071658_ENSMUST00000096259|mus_hu|mus_mus_mus_hu_False|28_38 (ssRNA)
# RNA: GGGAGUUCUACAGUCCGACGAUCAGGGUACCAAAACCUUCUGCCUGAAAUGGGUGCCCCACCCAGUAGGGAGUUGCAGCUGAAAGUAUCUGAUGCACUGACAGUUAAUGCAGAGAAGGAGGCCCCUGGGGAGGGCCAGGCCAGCAACAGAGGAUUGAGCAUCA
# B2: 83021423_83021639_1028_CDS_ENSMUSG00000034560_ENSMUST00000038388|mouse|control|control (ssRNA)
# RNA: GGGAGUUCUACAGUCCGACGAUCAAAAAUCUGAAAGUGCAGUACAAAGAGCCCACAAAUUCCAACAUACUUGUCUCUCUGGUCAAUUUCAGAAGGCUCACCAAGCUUGGCUUCCACAUUUGCAAAAAUUGAGCGAAUGCUAUGCAACAGAGGAUUGAGCAUCA
# B3: chr6:114281168:114281169:-_ENSG00000196591_ENST00000368632|hu_hu|hu_hu_hu_mus_True|78_108 (ssRNA)
# RNA: GGGAGUUCUACAGUCCGACGAUCUUCCAUUUUUCUGUAUAAACCAUAAUUUAGCAGCAAGUUAUGGGUCAUCCGGAUUCUAUGAGGCUUCAUGGGAUGACCCUGGCCAUAAUAAUAAUUGCCAAUAUCACCAUCAUAGUAGUACAACAGAGGAUUGAGCAUCA
# B4: chr18:24770415:24770416:+_ENSMUSG00000024271_ENSMUST00000025120|mus_hu|FALSE|FALSE (ssRNA)
# RNA: GGGAGUUCUACAGUCCGACGAUCAUAAACAGGUCCUUCAUGGCCUUGAAGAUGCACUGCUUUUAAAAGCUGAUUAUCCUCUAUUUCCCAGUGAAUCACUUGAUUAUCAGAUCCUCCAGAAACUAAUUCAGUAGAAGGGGAGCCCAACAGAGGAUUGAGCAUCA
# B5: chrX:98862621:98862622:+_ENSMUSG00000034160_ENSMUST00000044475|mus_hu|mus_mus_mus_hu_False|8_78 (ssRNA)
# RNA: GGGAGUUCUACAGUCCGACGAUCCUGCAUCUCCUUUAGAGUGUUUCCCAUAUUAGAAUAAGCAUCAGCAAAGGUAGGACUGAUUCGAAUAGCCUCCUUAUAAUGCAUCAGAGCUUCCUGCAGUUUUCCCUGCUGUUGCAGUACCAACAGAGGAUUGAGCAUCA
# B6: 4745457_4745577_5373_CDS_ENSMUSG00000067889_ENSMUST00000008991|mouse|control|control (ssRNA)
# RNA: GGGAGUUCUACAGUCCGACGAUCUUCAUGGUCAAUCAUAUCUUGACUGCUGGCUGCUAGUUGUUUGAUGGUCUGGGCAUAGUCAGCAAGGGCUUGUUCCAAUACCUGAUGCUUCUUCACUUCUGCCUGGGCGCUCAGCUCAUCCAACAGAGGAUUGAGCAUCA
# B7: chr5:128440902:128440903:+_ENSG00000066583_ENST00000173527|hu_mus|motif|central (ssRNA)
# RNA: GGGAGUUCUACAGUCCGACGAUCUUGAACGGUGCUGCCAAGUCCUUUGGGGUAUUGUUCCGUUAUGAUAACUGGAAUCCCGGAGAUCCGAGCUCCUUGCAACAGUCUCUGUCCCACACUAAUGAUGUCCCCAAAGUAUUUGAUCAACAGAGGAUUGAGCAUCA
# B8: chr12:58340223:58340224:+_ENSMUSG00000079104_ENSMUST00000139049|mus_mus|FALSE|FALSE (ssRNA)
# RNA: GGGAGUUCUACAGUCCGACGAUCCUGUAUUUUGGAGCAGUGUUUCAUCUUGUCUUCCUGAGGUAUGGUAUUGGUAACUACUACUGCUUCAAAGCAUGCAUUGUUGAUGCGAGAAAUGGCAGGGCCAGAGAAGAUUCCAUGCGUCAACAGAGGAUUGAGCAUCA
# B9: chr7:4964383:4964384:-_ENSMUSG00000061374_ENSMUST00000077385|mus_mus|FALSE|FALSE (ssRNA)
# RNA: GGGAGUUCUACAGUCCGACGAUCGCAUCGGUAGGGUCGUUCACCAGUGUGUGAGCGCAGGUGGUUAGCCAAGUUGAAGCUAUGCUUGAAGCCCUUACCGCAUCGAGGACAUGCGUGGGGCUUGAGAGCCGUGUGUCGAGCAAACAACAGAGGAUUGAGCAUCA
# B10: 11280689_11280809_2316_3pUTR_ENSG00000154319_ENST00000284486|human|control|control (ssRNA)
# RNA: GGGAGUUCUACAGUCCGACGAUCUUCUACGGGUCUGGCCGAGGGACCCCUGCCAUGCCGUAUGACCCCAGACUGACCUCCCUAACCUGCUGGGGUCUUAACUUGCUGAUCCUCAAGCCUGUUGGGAGGGAGAAACUCUUAAAACAACAGAGGAUUGAGCAUCA
# B11: chr18:90710673:90710674:+_ENSMUSG00000024614_ENSMUST00000025515|mus_mus|FALSE|FALSE (ssRNA)
# RNA: GGGAGUUCUACAGUCCGACGAUCACCUAAUAAAAAUUCUGAAAUUAGCUAAAAUGAAGGCAUCAAAAUUAACAAAUGAUCUAUAGUAAACAUUAUCACAAAAUACCCACUCUUAGACACGACUGCAUUCUGAUGAAAGAUGCGCAACAGAGGAUUGAGCAUCA
# B12: chr10:7844279:7844280:+_ENSG00000165629_ENST00000356708|hu_mus|FALSE|FALSE (ssRNA)
# RNA: GGGAGUUCUACAGUCCGACGAUCAUCAGAAGCGUUCUUGCUGGCGUUGUCCAUGGCGGUCAUCCUGGCACUCUGCUCACUGGUGGUGGACUCCUUCAGGGAGUAGUAGAUGAGGUUGGCCAGAUUGUACUCCUGGUAAUUCUGCAACAGAGGAUUGAGCAUCA
# B13: chr18:9954606:9954607:+_ENSG00000101558_ENST00000400000|hu_mus|motif|central (ssRNA)
# RNA: GGGAGUUCUACAGUCCGACGAUCCCAUUUCCCCCACAGAAAACCUCUUGGCAUUUCCUGAAUGAGUGGGAUUAGCAAUCGGAAUAAAUCAUAUUUCAAGAGGUAACAGCAACAGAUAAAAUUUAAAGGAAUUAUUAAAAUAACCAACAGAGGAUUGAGCAUCA
# B14: chr6:38652254:38652255:-_ENSG00000124767_ENST00000373365|hu_hu|hu_hu_hu_mus_False|1_88 (ssRNA)
# RNA: GGGAGUUCUACAGUCCGACGAUCCGAGAACUUCAUAGCAGGGAAGUCACAUUUUUGCAGGAGGGUCAGUCCAAGAACCCUCGUAUAAAAAUCCAGGGACUUCUUAGGAUCCUUAAUUCUUAGCAUCGUUUGCUGCAAUAGAAACAACAGAGGAUUGAGCAUCA
# B15: chr6:50807893:50807894:+_ENSG00000008196_ENST00000393655|hu_hu|motif|central (ssRNA)
# RNA: GGGAGUUCUACAGUCCGACGAUCCUCAGAGACGGCUUUGGCGGGAAACUCCGUUUCGCAAAUGUACCCAAAAUCCCGGGCGGAGUGAACAGCUUCUCCUUCCACCAGGGAGGUGAGUAACGUGACAUUUGCUGCUUUGCGCCUCAACAGAGGAUUGAGCAUCA
# B16: chr10:112654219:112654220:+_ENSG00000150593_ENST00000280154|hu_mus|FALSE|FALSE (ssRNA)
# RNA: GGGAGUUCUACAGUCCGACGAUCCCACAAGGAUUUUAAUAAAUCUAAGAUCAUCUUGAAUGCACUUUCUCCAGUUGACUCUAAAACCAUUACAAUGGCUUCAUAUACAAGCUCGUGGUGAAAAUGAGGUACUUCCAGUUCCUUCAACAGAGGAUUGAGCAUCA
# B17: chr9:91931296:91931297:+_ENSG00000123975_ENST00000314355|hu_hu|hu_hu_hu_mus_True|98_98 (ssRNA)
# RNA: GGGAGUUCUACAGUCCGACGAUCAGAUUAGAUGAUCCCAGAUAAACUUCAUUUUUGUUGUUCUUUUGGAAGAGGUCGUCUAAAGAGAAGAAUAUGCGGUUCUGGCUCAUGAAUCAUGUAAUGAACCCAUCCUAGACUCUGUUGCAACAGAGGAUUGAGCAUCA
# B18: chr3:58352644:58352645:+_ENSMUSG00000027810_ENSMUST00000029387|mus_mus|motif|central (ssRNA)
# RNA: GGGAGUUCUACAGUCCGACGAUCCUUAUGCAAAAGAGAGCCAGUAUAAUGCCAGAUCUUAUACCCAUUAUUAACACGUAACCGGGGAGCACAUGUGGCUGUUAAGAUAUGCUCACCAUCUGGGCACCAGGCAAAAUAUGUAGACAACAGAGGAUUGAGCAUCA
# B19: chrX:71549400:71549401:+_ENSMUSG00000019087_ENSMUST00000019231|mus_hu|mus_mus_mus_hu_False|18_98 (ssRNA)
# RNA: GGGAGUUCUACAGUCCGACGAUCGCAGUAGGAAGAGCAAACCUUUCCAGUCCAGUGCGCUGCAGGGUGGGAAAGCAACAACACGGACACCGUCCCACCCUCAACCCCCCCACUGGCAUGUCACACAACAAUCUGGGUCAAAGACAACAGAGGAUUGAGCAUCA
# B20: 52304824_52312335_384_CDS_ENSG00000164091_ENST00000296490|human|control|control (ssRNA)
# RNA: GGGAGUUCUACAGUCCGACGAUCUUUGCCCUCCUGGCAGUCAUAGAGCACGAUGGAGUCGUCGUCGCUACUCGAGAUGACCGUCUCGCCGUUGGGGCUGAAAUCGAAGCAGUUAAUCUUGUCCGAGUUUUCGCGGAACACCUUCAACAGAGGAUUGAGCAUCA
# B21: chr2:60072322:60072323:+_ENSMUSG00000026977_ENSMUST00000102748|mus_mus|motif|central (ssRNA)
# RNA: GGGAGUUCUACAGUCCGACGAUCAGAUCUUGUAUUCAAGGAAUCUUGACUAGAUCUUCGUGAGAAAAAAGUAGAUGACAUGCGGGAAGCUAUCCGUGACAGCAAUCUCCUAGUUGUACGCCUACCUUCAUUGUCAGAAGAUUCCAACAGAGGAUUGAGCAUCA
# B22: chr22:32879901:32879902:+_ENSG00000100225_ENST00000397426|hu_mus|hu_hu_hu_mus_False|1_1 (ssRNA)
# RNA: GGGAGUUCUACAGUCCGACGAUCCUCUUCCAUACUCAUGGCAUCCUGAAUUGACUCAGCUUCAACAUUUUGACUAGGCCCUUCCAUACUGUCAUCAGUCCAGGCAUCAAAUGGGGUGGCCUGUCCUUGGGAUGAAUCACUUGGCAACAGAGGAUUGAGCAUCA
# Biological target: T1, UNK ZnF1-3
# Test: nsRBNS (natural sequence RNA bind-n-seq); RBNS binding buffer (assumed for nsRBNS): 25 mM Tris pH 7.5, 150 mM KCl, 3 mM MgCl2, 0.01% Triton X-100, 500 ug/ml BSA, 20 U/ml SUPERase-In, 4 C; UNK is unkempt and MSI1 is Musashi-1; names of the RNAs are library labels; protein concentration not given here; high values mean tight binding
row,Binder,binding signal [enrichment R]
1,B1,1.7
2,B2,1.7
3,B3,0.794
4,B4,0.865
5,B5,1.15
6,B6,0.599
7,B7,0.788
8,B8,0.892
9,B9,1.27
10,B10,0.89
11,B11,1.94
12,B12,0.618
13,B13,2.28
14,B14,0.9
15,B15,0.704
16,B16,0.839
17,B17,1.04
18,B18,1.13
19,B19,1.06
20,B20,0.529
21,B21,0.487
22,B22,1.02
